# Experimental data taken from the supplement of paper PMC10369915.
# The other results are listed elsewhere or left out. No stated cut-off is given here; in the data, active = 3.2 or more and inactive = the rest. Only a few entries rise above the background.
# Biological target: SHP2 C-SH2 domain E139D
# Assay: enrichment score (SH2-bound / input frequency) (ratio); bacterial display of known human phosphotyrosine sites (pTyr-Var adds point mutants) read by sequencing; higher = stronger binding; tyrosines were phosphorylated by kinases first
# Settings: peptide library: pTyr-Var
# 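Further: displayed peptides selected on beads carrying the immobilized SH2 domain, with library peptides lacking any tyrosine serving as negative controls.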
row,Binder,enrichment score
1,DDEESYENVPR [FCRL3_Y722_N721S],inactive: 0.27
2,SLNEGYARDFD [FBP1_Y216],inactive: 0.699
3,TESNNYIFTTL [FAM83B_Y637_K640T_YF],inactive: 0.66
4,PCPANYFAFKI [FAM3D_Y65],inactive: 1.79
5,RAIGHYSATSK [FAM120A_Y328_Y327H],inactive: 0.558
6,SSREGYVRHHN [FAM83B_Y433_S435R],inactive: 0.842
7,KNEVFYQCPDQ [FBXO3_Y223],inactive: 0.78
8,SNNYIYTTLGV [FAM83B_Y639_K640T],inactive: 1.02
9,GETEQYVGGGG [FAT4_Y4980_A4977T],inactive: 0.483
10,YEEDSYSHVMA [FDPS_Y388_I391V],inactive: 0.528
11,HLTLVYGGIFL [FBP1_Y259_R255L],inactive: 0.913
12,KAFDMYSGDVM [FAM3D_Y122],inactive: 0.837
13,DVSVVCSEVKT [FCRL4_Y493_Y493C],inactive: 0.798
14,FGSLLYKYAFK [FANCD2_Y458],inactive: 0.543
15,REVPVYTDSEP [FAM120B_Y368],inactive: 0.569
16,TESNNYIYTTL [FAM83B_Y637_K640T],inactive: 0.553
17,AESPEYVHMFT [FAM111A_Y511_YF],inactive: 0.981
18,FSQQVYRVNLS [FAT4_Y480],inactive: 1.18

# Biological target: SHP2 C-SH2 domain wild-type
# Assay: as above
# Settings: peptide library: pTyr-Var
row,Binder,enrichment score
1,DDEESYENVPR [FCRL3_Y722_N721S],inactive: 0.329
2,SLNEGYARDFD [FBP1_Y216],inactive: 0.48
3,TESNNYIFTTL [FAM83B_Y637_K640T_YF],inactive: 0.716
4,PCPANYFAFKI [FAM3D_Y65],inactive: 1.84
5,RAIGHYSATSK [FAM120A_Y328_Y327H],inactive: 0.561
6,SSREGYVRHHN [FAM83B_Y433_S435R],inactive: 0.727
7,KNEVFYQCPDQ [FBXO3_Y223],inactive: 0.736
8,SNNYIYTTLGV [FAM83B_Y639_K640T],inactive: 2.37
9,GETEQYVGGGG [FAT4_Y4980_A4977T],inactive: 0.393
10,YEEDSYSHVMA [FDPS_Y388_I391V],inactive: 0.736
11,HLTLVYGGIFL [FBP1_Y259_R255L],inactive: 1.18
12,KAFDMYSGDVM [FAM3D_Y122],inactive: 0.725
13,DVSVVCSEVKT [FCRL4_Y493_Y493C],inactive: 0.981
14,FGSLLYKYAFK [FANCD2_Y458],inactive: 0.755
15,REVPVYTDSEP [FAM120B_Y368],inactive: 0.732
16,TESNNYIYTTL [FAM83B_Y637_K640T],inactive: 0.638
17,AESPEYVHMFT [FAM111A_Y511_YF],inactive: 1
18,FSQQVYRVNLS [FAT4_Y480],inactive: 0.985

# Biological target: SHP2 N-SH2 domain L43F
# Assay: as above
# Settings: peptide library: pTyr-Var
row,Binder,enrichment score
1,DDEESYENVPR [FCRL3_Y722_N721S],inactive: 0.286
2,SLNEGYARDFD [FBP1_Y216],inactive: 0.591
3,TESNNYIFTTL [FAM83B_Y637_K640T_YF],inactive: 0.655
4,PCPANYFAFKI [FAM3D_Y65],inactive: 1.88
5,RAIGHYSATSK [FAM120A_Y328_Y327H],inactive: 0.805
6,SSREGYVRHHN [FAM83B_Y433_S435R],inactive: 0.871
7,KNEVFYQCPDQ [FBXO3_Y223],inactive: 0.707
8,SNNYIYTTLGV [FAM83B_Y639_K640T],inactive: 1.02
9,GETEQYVGGGG [FAT4_Y4980_A4977T],inactive: 0.434
10,YEEDSYSHVMA [FDPS_Y388_I391V],inactive: 0.645
11,HLTLVYGGIFL [FBP1_Y259_R255L],inactive: 0.877
12,KAFDMYSGDVM [FAM3D_Y122],inactive: 0.73
13,DVSVVCSEVKT [FCRL4_Y493_Y493C],inactive: 1
14,FGSLLYKYAFK [FANCD2_Y458],inactive: 0.588
15,REVPVYTDSEP [FAM120B_Y368],inactive: 0.577
16,TESNNYIYTTL [FAM83B_Y637_K640T],inactive: 0.607
17,AESPEYVHMFT [FAM111A_Y511_YF],inactive: 0.786
18,FSQQVYRVNLS [FAT4_Y480],inactive: 1.29

# Biological target: SHP2 N-SH2 domain T42A
# Assay: as above
# Settings: peptide library: pTyr-Var
row,Binder,enrichment score
1,DDEESYENVPR [FCRL3_Y722_N721S],inactive: 0.381
2,SLNEGYARDFD [FBP1_Y216],inactive: 0.594
3,TESNNYIFTTL [FAM83B_Y637_K640T_YF],inactive: 0.522
4,PCPANYFAFKI [FAM3D_Y65],inactive: 1.69
5,RAIGHYSATSK [FAM120A_Y328_Y327H],inactive: 0.347
6,SSREGYVRHHN [FAM83B_Y433_S435R],inactive: 0.836
7,KNEVFYQCPDQ [FBXO3_Y223],inactive: 0.668
8,SNNYIYTTLGV [FAM83B_Y639_K640T],active: 5.16
9,GETEQYVGGGG [FAT4_Y4980_A4977T],inactive: 0.425
10,YEEDSYSHVMA [FDPS_Y388_I391V],inactive: 0.606
11,HLTLVYGGIFL [FBP1_Y259_R255L],inactive: 0.625
12,KAFDMYSGDVM [FAM3D_Y122],inactive: 0.58
13,DVSVVCSEVKT [FCRL4_Y493_Y493C],inactive: 0.584
14,FGSLLYKYAFK [FANCD2_Y458],inactive: 0.56
15,REVPVYTDSEP [FAM120B_Y368],inactive: 0.416
16,TESNNYIYTTL [FAM83B_Y637_K640T],inactive: 0.913
17,AESPEYVHMFT [FAM111A_Y511_YF],inactive: 0.781
18,FSQQVYRVNLS [FAT4_Y480],inactive: 1.02

# Biological target: SHP2 N-SH2 domain T52S
# Assay: as above
# Settings: peptide library: pTyr-Var
row,Binder,enrichment score
1,DDEESYENVPR [FCRL3_Y722_N721S],inactive: 0.441
2,SLNEGYARDFD [FBP1_Y216],inactive: 0.971
3,TESNNYIFTTL [FAM83B_Y637_K640T_YF],inactive: 0.766
4,PCPANYFAFKI [FAM3D_Y65],inactive: 1.58
5,RAIGHYSATSK [FAM120A_Y328_Y327H],inactive: 0.552
6,SSREGYVRHHN [FAM83B_Y433_S435R],inactive: 0.86
7,KNEVFYQCPDQ [FBXO3_Y223],inactive: 0.777
8,SNNYIYTTLGV [FAM83B_Y639_K640T],inactive: 1.07
9,GETEQYVGGGG [FAT4_Y4980_A4977T],inactive: 0.395
10,YEEDSYSHVMA [FDPS_Y388_I391V],inactive: 0.794
11,HLTLVYGGIFL [FBP1_Y259_R255L],inactive: 0.699
12,KAFDMYSGDVM [FAM3D_Y122],inactive: 0.82
13,DVSVVCSEVKT [FCRL4_Y493_Y493C],inactive: 0.744
14,FGSLLYKYAFK [FANCD2_Y458],inactive: 0.57
15,REVPVYTDSEP [FAM120B_Y368],inactive: 0.708
16,TESNNYIYTTL [FAM83B_Y637_K640T],inactive: 0.686
17,AESPEYVHMFT [FAM111A_Y511_YF],inactive: 0.766
18,FSQQVYRVNLS [FAT4_Y480],inactive: 1.11

# Biological target: SHP2 N-SH2 domain wild-type
# Assay: as above
# Settings: peptide library: pTyr-Var
row,Binder,enrichment score
1,DDEESYENVPR [FCRL3_Y722_N721S],inactive: 0.41
2,SLNEGYARDFD [FBP1_Y216],inactive: 0.687
3,TESNNYIFTTL [FAM83B_Y637_K640T_YF],inactive: 0.983
4,PCPANYFAFKI [FAM3D_Y65],inactive: 1.76
5,RAIGHYSATSK [FAM120A_Y328_Y327H],inactive: 0.481
6,SSREGYVRHHN [FAM83B_Y433_S435R],inactive: 0.867
7,KNEVFYQCPDQ [FBXO3_Y223],inactive: 0.792
8,SNNYIYTTLGV [FAM83B_Y639_K640T],inactive: 0.764
9,GETEQYVGGGG [FAT4_Y4980_A4977T],inactive: 0.536
10,YEEDSYSHVMA [FDPS_Y388_I391V],inactive: 0.68
11,HLTLVYGGIFL [FBP1_Y259_R255L],inactive: 1.31
12,KAFDMYSGDVM [FAM3D_Y122],inactive: 0.66
13,DVSVVCSEVKT [FCRL4_Y493_Y493C],inactive: 0.858
14,FGSLLYKYAFK [FANCD2_Y458],inactive: 0.596
15,REVPVYTDSEP [FAM120B_Y368],inactive: 0.83
16,TESNNYIYTTL [FAM83B_Y637_K640T],inactive: 0.577
17,AESPEYVHMFT [FAM111A_Y511_YF],inactive: 1.07
18,FSQQVYRVNLS [FAT4_Y480],inactive: 1.12
